Results: PMC4336329 (PLoS ONE, 2015)
About 14,000 (4.5%) of roughly 310,000 compounds showed an effect of 50% or more. The effect is printed as a negative number. The list shows a part of the results.

Target: human ether-à-go-go-related gene (hERG) potassium channel (human, UniProt Q12809)
Assay: primary screen, population patch clamp on CHO cells stably expressing hERG
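Also: peak tail current of the secondary pulse compared with the same well before compound.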

Sequence of human ether-à-go-go-related gene (hERG) potassium channel (Q12809 whole entry, looked up): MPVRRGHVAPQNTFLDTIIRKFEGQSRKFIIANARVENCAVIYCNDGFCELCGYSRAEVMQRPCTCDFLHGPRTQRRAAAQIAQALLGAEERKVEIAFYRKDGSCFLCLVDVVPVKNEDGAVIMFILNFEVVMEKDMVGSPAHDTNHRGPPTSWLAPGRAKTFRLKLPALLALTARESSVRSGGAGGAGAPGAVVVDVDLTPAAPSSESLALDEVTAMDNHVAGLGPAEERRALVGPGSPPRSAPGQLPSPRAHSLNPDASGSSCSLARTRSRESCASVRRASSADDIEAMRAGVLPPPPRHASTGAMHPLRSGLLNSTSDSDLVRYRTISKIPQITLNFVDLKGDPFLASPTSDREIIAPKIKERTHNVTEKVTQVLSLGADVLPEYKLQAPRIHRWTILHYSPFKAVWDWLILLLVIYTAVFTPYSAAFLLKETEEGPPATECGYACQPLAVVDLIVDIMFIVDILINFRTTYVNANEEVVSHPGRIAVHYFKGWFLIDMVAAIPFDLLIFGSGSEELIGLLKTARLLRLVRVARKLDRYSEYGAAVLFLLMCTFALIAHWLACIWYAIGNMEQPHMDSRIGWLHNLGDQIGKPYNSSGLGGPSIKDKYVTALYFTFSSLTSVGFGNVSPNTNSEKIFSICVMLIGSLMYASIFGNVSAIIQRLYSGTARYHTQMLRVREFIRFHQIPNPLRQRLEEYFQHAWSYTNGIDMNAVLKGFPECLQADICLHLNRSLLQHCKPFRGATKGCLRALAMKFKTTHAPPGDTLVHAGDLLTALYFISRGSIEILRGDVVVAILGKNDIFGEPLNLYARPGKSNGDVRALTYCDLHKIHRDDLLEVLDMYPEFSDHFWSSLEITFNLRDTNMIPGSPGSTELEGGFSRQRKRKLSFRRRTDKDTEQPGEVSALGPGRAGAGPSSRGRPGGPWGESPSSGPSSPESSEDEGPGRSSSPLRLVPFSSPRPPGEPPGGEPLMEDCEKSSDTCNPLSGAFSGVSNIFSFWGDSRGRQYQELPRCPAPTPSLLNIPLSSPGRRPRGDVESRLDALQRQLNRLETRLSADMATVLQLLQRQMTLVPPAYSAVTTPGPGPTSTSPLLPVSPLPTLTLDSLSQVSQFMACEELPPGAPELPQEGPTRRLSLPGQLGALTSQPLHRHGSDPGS

Row | SMILES | hERG current change (%, negative = inhibition) at 10uM
1 | CC(C)(C)c1ccc(-c2nc(O)c(CC(=O)O)s2)cc1 | 16.3%
2 | N#C/C(=N\Nc1ccccc1)C(=N)N1CCCCC1 | -21.6%
3 | CCN(CC)c1ccc(/C=N/NC(=O)c2ccc3nc[nH]c3c2)cc1 | -22%
4 | COc1ccc(N2CCN(CC(=O)Nc3ccccc3SC)CC2)cc1 | -5.77%
5 | COc1ccc(CNC(=O)CCn2ccc3cc(S(=O)(=O)N4CCCC4)ccc32)cc1 | -12.4%
6 | Cc1cccc(N/C=C/C(=O)c2cccs2)c1C | 5.04%
7 | CC(C)Cc1ccc([C@H](C)C(=O)O)cc1 | 7.11%
8 | CC(C)COc1ccc(/C=C2/Sc3ccccc3C2=O)cc1 | 15.1%
9 | CCN(CC)C(=O)c1cc2c(=O)c3cc(Cl)ccc3oc2nc1C | -66.1%
10 | COc1ccc(/C=N/NC(=O)c2ccccc2OC)cc1COc1ccc(C)cc1 | 17.6%
11 | Cc1ccc(C(=O)NNC(=O)OC(C)(C)C)c(Cl)c1 | 13.1%
12 | O=C(NC1CCCCC1)C(c1ccc(O)cc1)N(CC1CCCO1)C(=O)C1COc2ccccc2O1 (stereo not shown) | -29.4%
13 | COc1cccc(N(CC(=O)NCC2CCCO2)C(=O)CNS(=O)(=O)c2ccccc2)c1 (stereo not shown) | 23.1%
14 | Cc1ccc(C2(C(F)(F)F)NC(=O)N3N=C4CCCCCN4C3=C2C#N)cc1 (stereo not shown) | 7.51%
15 | C/C=C(/C)C(=O)O[C@@H]1c2c(ccc3ccc(=O)oc23)OC(C)(C)[C@@H]1OC(=O)/C(C)=C\C | -8.07%
16 | CC(=O)N(c1ccccc1C)S(=O)(=O)c1ccc(Cl)cc1 | -0.53%
17 | CCC(=O)c1ccc(OCC(=O)N2CCN(c3ncccn3)CC2)cc1 | -17.1%
18 | O=C(NCCc1ccccn1)C(F)(F)C(F)(F)C(F)(F)C(F)(F)C(F)(F)C(F)F | -23.9%
19 | Cc1ccccc1C(=O)c1cccn1CC(=O)NC1CCCC(C)C1C (stereo not shown) | 2.14%
20 | COc1ccc(C(=O)/C(=C/O)N=Nc2ccc(F)cc2)cc1 | 9.72%
21 | Cc1ccc(S(=O)(=O)N2CCSC2=Nc2ccccc2)cc1 | 0.53%
22 | CCCC(=O)N1CCN(C2=NS(=O)(=O)c3ccccc32)CC1 | -3%
23 | CCCOc1cccc(C(=O)Nc2cccnc2)c1 | -23.1%
24 | COc1cc(O)cc(O)c1C(=O)/C=C/c1ccccc1 | 10.6%
25 | CC1CCCCN1c1ncnc(N)c1[N+](=O)[O-] (stereo not shown) | 9.32%
